Laboratory results reported in publication PMC4336329 (PLoS ONE, 2015).
In all, about 310,000 compounds went through this assay and about 2,200 (0.71%) showed an effect of 50% or more. The effect is printed as a negative number. The list shows a part of the results.

These compounds were tested against human ether-à-go-go-related gene (hERG) potassium channel (human, UniProt Q12809) (assay: primary screen, population patch clamp on CHO cells stably expressing hERG).
human ether-à-go-go-related gene (hERG) potassium channel, sequence (Q12809 whole entry, looked up): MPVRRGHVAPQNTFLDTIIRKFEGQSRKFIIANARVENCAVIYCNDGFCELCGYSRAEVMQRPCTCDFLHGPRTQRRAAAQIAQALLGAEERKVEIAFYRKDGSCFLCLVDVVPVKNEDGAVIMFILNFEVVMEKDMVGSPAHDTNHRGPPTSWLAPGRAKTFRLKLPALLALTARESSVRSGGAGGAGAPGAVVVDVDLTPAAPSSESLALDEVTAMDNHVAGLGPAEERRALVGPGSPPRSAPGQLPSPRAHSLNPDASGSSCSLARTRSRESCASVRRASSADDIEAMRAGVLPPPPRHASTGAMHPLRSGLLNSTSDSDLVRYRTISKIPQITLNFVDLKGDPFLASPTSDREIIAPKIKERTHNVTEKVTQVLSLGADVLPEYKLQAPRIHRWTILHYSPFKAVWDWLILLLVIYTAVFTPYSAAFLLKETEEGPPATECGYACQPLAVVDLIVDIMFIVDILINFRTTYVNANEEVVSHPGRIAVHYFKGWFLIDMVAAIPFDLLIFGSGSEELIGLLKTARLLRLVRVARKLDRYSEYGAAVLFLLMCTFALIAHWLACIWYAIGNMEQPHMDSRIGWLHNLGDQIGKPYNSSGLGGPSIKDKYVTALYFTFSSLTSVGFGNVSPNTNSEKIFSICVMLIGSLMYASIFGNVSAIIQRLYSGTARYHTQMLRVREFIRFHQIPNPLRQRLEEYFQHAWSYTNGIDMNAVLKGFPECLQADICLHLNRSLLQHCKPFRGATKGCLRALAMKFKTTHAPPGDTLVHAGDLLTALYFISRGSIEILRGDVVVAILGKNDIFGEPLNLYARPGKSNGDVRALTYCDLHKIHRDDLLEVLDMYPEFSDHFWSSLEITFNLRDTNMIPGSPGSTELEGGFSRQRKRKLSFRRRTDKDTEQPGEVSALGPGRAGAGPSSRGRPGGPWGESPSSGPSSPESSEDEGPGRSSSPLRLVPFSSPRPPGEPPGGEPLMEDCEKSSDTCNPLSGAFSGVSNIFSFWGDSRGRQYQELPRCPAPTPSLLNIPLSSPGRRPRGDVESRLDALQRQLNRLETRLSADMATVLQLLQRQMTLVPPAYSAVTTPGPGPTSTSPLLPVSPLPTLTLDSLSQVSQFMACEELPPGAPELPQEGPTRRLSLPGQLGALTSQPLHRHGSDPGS

Row | SMILES | hERG current change (%, negative = inhibition) at 1uM
1 | O=C(COc1ccccc1/C=C1\SC(=O)NC1=O)Nc1ccccc1 | 21.8%
2 | CCOc1ccc(NS(=O)(=O)c2ccc(C)c(C(N)=O)c2)cc1 | 14.9%
3 | Cc1nnc2ccc(-c3cccc(C(F)(F)F)c3)nn12 | 5.93%
4 | O=C(NCCC1=CCCCC1)C1CCN(c2nnc(-n3cccc3)s2)CC1 | -6.21%
5 | CC1CCN(CC(O)COC2CC(C)CCC2C(C)C)CC1.Cl (stereo not shown) | -13.9%
6 | COc1ccc(NC(=O)NS(=O)(=O)c2ccc(C)cc2)c(OC)c1 | 16%
7 | CCOc1ccc([N+](=O)[O-])cc1CNC1CCCCCCC1.Cl | 11.4%
8 | Brc1cc2c(cc1/C=N/Nc1nc3ccccc3s1)OCO2 | 8.4%
9 | CCc1nnc(SCC(=O)NC2CC2)n1CC | 18.8%
10 | Cn1nnnc1SCC(=O)Nc1ccc2c(c1)OCO2 | 13.2%
11 | Cc1cccc(C(=O)OCC(=O)Nc2nnc(-c3ccccc3)o2)c1O | 1.36%
12 | COC(=O)c1ccccc1NC(=O)CSc1nnc(C(C)NC(=O)c2ccc(Cl)cc2Cl)n1C (stereo not shown) | -3.64%
13 | Nc1nnc(SCC(=O)OCC(=O)NC23CC4CC(CC(C4)C2)C3)s1 | 15.5%
14 | CC(=O)Nc1ccc2c(c1)OCCOCCOc1cc(NC(C)=O)ccc1OCCO2 | 9.07%
15 | COc1cc(CNCCCO)ccc1OCC(=O)NC(C)(C)C | 15.6%
16 | COc1ccccc1CNc1ccccc1F | 10.3%
17 | O=C(Nc1cccc(O)c1)c1ccc(Br)c(S(=O)(=O)N2CCCCC2)c1 | 7.4%
18 | Cc1nonc1NC(=O)c1oc2ccc(F)cc2c1C | 21.4%
19 | COc1ccc(N2C(S)=C(C#N)C(=O)NC23CCCCC3)cc1 | 21.1%
20 | O=C(Cc1ccc(Br)cc1)N/N=C/c1cccnc1 | 2.1%

Row | SMILES | hERG current change (%, negative = inhibition) at 1uM
21 | CN(C)CCN1CC(C(=O)O)CC1=O (stereo not shown) | 10.4%
22 | Cc1nc(CS(=O)(=O)c2ccccc2)cc(N2CCN(c3ccccc3F)CC2)n1 | 9.36%
23 | CCc1c(C)sc(NC(=O)C2CC(c3c(F)cccc3Cl)=NO2)c1C#N (stereo not shown) | 12.9%
24 | COc1ccc(C(=O)Nc2c(-c3ccccc3)nc3ccccn23)c(OC)c1 | 13.4%
25 | Cc1occc1-c1nnc(SCC(=O)N2CCOCC2)n1CC(C)C | 7.82%
26 | O=C(Nc1cccc(Cl)c1Cl)Nn1cnnc1 | 16.1%
27 | COc1ccc(CN2CCNC(=O)C2CC(=O)N2CCCN(C(C)=O)CC2)c(OC)c1 (stereo not shown) | 16%
28 | CCN(CC)Cc1ccccn1.Cl | 9.21%
29 | COC(=O)Cc1nc(NC(=O)c2cccs2)sc1C | 23.2%
30 | CCOC(=O)c1cnn(CCOC(=O)c2ccc(F)cc2)c1NC(=O)c1ccc(F)cc1 | 2.82%
31 | Cc1cc(=O)n(C)c(=O)n1CC(=O)N1CCCCCC1 | 16.5%
32 | CCCn1c(CN(Cc2ccccc2)Cc2ccccc2)nc2c1c(=O)n(C)c(=O)n2C | 12.8%
33 | CCOc1cc(/C=C2\SC(N3CCCC(C)C3)=NC2=O)ccc1O (stereo not shown) | 12.6%
34 | COC(=O)C1=C(c2ccc(OC)c(OC)c2)C[C@@H]2CC[C@H]1N2C(=O)N1CCC(O)CC1 | 12.7%
35 | O=c1cnn(-c2ccc(Cl)cc2Cl)c(-c2ccccc2)c1 | 5.48%
36 | CN1C(=O)c2cccc(NC(=O)C3CCCCC3)c2C1=O | 1.01%
37 | Cc1ccc(Cl)cc1N1CCN(S(=O)(=O)c2c(C)nc3scc(C)n3c2=O)CC1 | 15.2%
38 | Cc1ccc2ncnc(NCCC(=O)O)c2c1.Cl | 2.24%
39 | COc1ccc(CNC(=O)CCS(=O)(=O)c2ccc3c(c2)CC(C)N3C(=O)C2CC2)cc1 (stereo not shown) | 10.1%
40 | CCOC(=O)C1=C(C)NC(=S)NC1c1ccc(-c2cccc(Cl)c2C)o1 (stereo not shown) | 10.8%

Row | SMILES | hERG current change (%, negative = inhibition) at 1uM
41 | c1ccc(Cn2nnnc2CN2CCN(Cc3ccc4c(c3)OCO4)CC2)cc1 | -36.5%
42 | CC(C)(C)N1C(=O)[C@H]2[C@@H](c3ccc(Br)cc3)N3C(=O)N(c4cccc(Cl)c4)C(=O)[C@@]3(Cc3ccccc3)[C@H]2C1=O | 15.1%
43 | Cc1ccc(C(=O)Nc2ccc(Nc3ccccc3)cc2)c(Cl)c1 | 16.9%
44 | COc1ccc(Cl)cc1NC(=S)N(Cc1cccnc1)Cc1ccco1 | -15.9%
45 | O=C(NC1CCS(=O)(=O)C1)c1cccc(S(=O)(=O)N2CCCCC2)c1 (stereo not shown) | 6.02%
46 | Cc1nc(CSc2ccc(Cl)cc2)cc(N2CCOCC2)n1 | 0.168%
47 | COc1ccc(/C=C/C(=O)NNC(=O)c2cc(C)oc2C)cc1 | 11.6%
48 | Cc1cc(Cl)ccc1Oc1ccccc1C(=O)CC#N | -1.61%
49 | COc1cccc(NC(=O)CCN2C(=O)c3ccccc3Sc3ncccc32)c1 | 12%
50 | NC(=O)c1cc2cc(Br)ccc2o/c1=N/NC(=O)c1cccc(F)c1 | 11.8%
51 | O=C(CCN=C1NS(=O)(=O)c2ccccc21)OCc1ccccc1 | 4.13%
52 | Cc1cccc(N2CC(C(=O)Nc3ccc4c(c3)OCO4)CC2=O)c1C (stereo not shown) | -3.24%
53 | O=C(Nc1nnc(-c2ccncc2)o1)c1ccccc1F | 7.95%
54 | Cc1cc(-c2nnc(SCC(=O)c3ccc4c(c3)OCCO4)o2)no1 | -2.61%
55 | COc1cc(CNCc2ccc(OC)c3ccccc23)cc(OC)c1OC.O=C(O)C(=O)O | 5.04%
56 | C=CCN1C(=O)/C(=C2/Sc3ccccc3N2CC)SC1=S | 16.3%
57 | COc1ccccc1N1C(=O)C2CCC(c3ccccc3)CC2C1=O (stereo not shown) | 6.4%
58 | O=C(CCSc1ccc(Cl)cc1)N1CCN(S(=O)(=O)c2ccccc2)CC1 | -5.91%
